Data published in PubChem BioAssay AID555 (SRMLSC, 2006).
The list shows a part of the results. These are further read-outs of the screen, such as a control signal, another cell line or another target. No call is given for them. The list favours compounds with an active or inconclusive main result.

These compounds were tested on mevalonate kinase [Streptococcus pneumoniae D39] (assay: S. pneumoniae MK inhibitors, primary screen, biochemical, PK/LDH-coupled NADH absorbance (AID 555)). Conditions: purified MK, PK/LDH-coupled NADH absorbance 340 nm; measured here: pilot screen replicates; at 10 µM; stronger effect = higher value.

| SMILES | inhibition [%] |
| --- | --- |
| COc1ccc(CN2CCN(C(=O)Cc3ccccc3)CC2)c(OC)c1 | 3.5 |
